# Results reported in article PMC12136788.
# The other results are listed elsewhere or left out.
# T1: UNK ZnF1-3 (human, UniProt Q9C0B0 31-174)
# T1 sequence: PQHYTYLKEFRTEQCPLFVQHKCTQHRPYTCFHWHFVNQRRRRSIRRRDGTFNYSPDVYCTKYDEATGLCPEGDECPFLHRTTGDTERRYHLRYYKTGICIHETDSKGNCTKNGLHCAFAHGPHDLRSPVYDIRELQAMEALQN
# B1: chr2:198351390:198351391:-_ENSG00000144381_ENST00000345042|hu_hu|hu_hu_hu_mus_False|8_108 (ssRNA)
# RNA: GGGAGUUCUACAGUCCGACGAUCUCAUUCUCACUCUCCACAGAAAGGCUGCUUCUGAACUCUCAUGUGGUGACACAGCGCUACAGUCCUGAUGCUCACAGAACAGUAGAGAUGCCUCAGUGAUUUAUUAAGUUGAAAGGACACCAACAGAGGAUUGAGCAUCA
# B2: chr11:77336104:77336105:-_ENSG00000074201_ENST00000525064|hu_mus|hu_hu_hu_mus_False|8_8 (ssRNA)
# RNA: GGGAGUUCUACAGUCCGACGAUCCUCACACAUUGCUGUGAACAUCGCCUCCAAUGCUGACUUAUCACUGGGCACAAAUCGAAAUUCAGAAAUGGGUUCAACAUCAUCAUUGUCUUCCUCAUCUUCAUCAUCAGCAAGUUCUUUCAACAGAGGAUUGAGCAUCA
# B3: 9157977_9165565_1793_CDS_ENSMUSG00000033499_ENSMUST00000091829|mouse|control|control (ssRNA)
# RNA: GGGAGUUCUACAGUCCGACGAUCGCUUGUAAACUUCUCUUCUCUUUUCUUCCGAUAGCCAAAGGAAUUUUUCCUUCCUCUCCCUAAACCAGGAGAGGAUUCAAGACUACUUGGCUCCACACGCCCAGUUCCAAUCUCUCUCUUCAACAGAGGAUUGAGCAUCA
# B4: chrX:119680447:119680448:-_ENSG00000158290_ENST00000371322|hu_mus|FALSE|FALSE (ssRNA)
# RNA: GGGAGUUCUACAGUCCGACGAUCAAACAAAAAAAUGCUCCUGAUCAUUAUCAUUUGCCUACAGUGGUUUUGCCAGCAUCUAUCGAUCUUUUUGAGAAAAAGAACACUAUCCAAUGAAUCUUCUCUGAACUGAUGAAUCUGUGCCAACAGAGGAUUGAGCAUCA
# B5: 125006391_125006773_7440_CDS_ENSMUSG00000014444_ENSMUST00000067252|mouse|control|control (ssRNA)
# RNA: GGGAGUUCUACAGUCCGACGAUCCUGGAUGCGCACACCAAGGUAGUCCUCUUCCUCAUCUGGCUGCAGCUGCUUCACAGGGUUGGCUUCAGGCCCAUUGGGAGCACGAAUGUACUUGGGGAAGAGAUGGGGAAUGACCACUGACAACAGAGGAUUGAGCAUCA
# B6: chr10:7364202:7364203:-_ENSMUSG00000019795_ENSMUST00000163085|mus_hu|motif|central (ssRNA)
# RNA: GGGAGUUCUACAGUCCGACGAUCUCCAGAUCCUACAUCAAGAGCUUUAGCUCCUUCAUGCAACUGAUCAAAUAGAAGUUCGGGCGCAUAUGCAUGCAUGUGUGGAGCACUGAUUGUUGCUUGGAAACCUAUUGAUUGUGGAGACAACAGAGGAUUGAGCAUCA
# B7: 2405982_2406178_1304_CDS_ENSG00000106263_ENST00000360876|human|control|control (ssRNA)
# RNA: GGGAGUUCUACAGUCCGACGAUCUUUGCCAUCAUGGCUCCACUUAAAAAUAGGCCAAUGGGCUGAGCUCUCACAGUGAAAACCCCUCUUCUUGUGCCCCGUAAGGAUGUCCCAGAUGAUUAUGGCCUGAGGGUCAUCCUGCGUCAACAGAGGAUUGAGCAUCA
# B8: chr18:77696836:77696837:-_ENSMUSG00000025427_ENSMUST00000026494|mus_hu|FALSE|FALSE (ssRNA)
# RNA: GGGAGUUCUACAGUCCGACGAUCCCUCAGAGGAUACCGGCUGGGUGGGCUGAGGUUGUGGGAGGAGCGAGGGAGGAGGAAAGGCAGGUUCAUGAUGGAGAGGCAGGGUUGUGGUGGGGGCGGGGGGGUGCCAAGUGUAGCAAGCAACAGAGGAUUGAGCAUCA
# B9: chr6:133136146:133136147:+_ENSG00000112306_ENST00000230050|hu_hu|motif|central (ssRNA)
# RNA: GGGAGUUCUACAGUCCGACGAUCACAAAGAUGGGCUUGGCGCUUGUCUAAGGCUUUGGCAGCUUCGCGAAUUCCACGUGCGGGGCCAUCGUGGAUGAGGGCAGUCUUCAGAACCUCUUGUAAAGCAGUAUUAACGUCCAUUACCAACAGAGGAUUGAGCAUCA
# B10: chr17:65740002:65740003:+_ENSG00000130935_ENST00000581375|hu_hu|hu_hu_hu_mus_False|58_58 (ssRNA)
# RNA: GGGAGUUCUACAGUCCGACGAUCAACAAAUCUUUCUUCCCUGGACGAACAGGAAGAUUCAUAUUAAAAAAAAUAUAUGUCUAUGAAGUUAGGUGUGGUGGCCACACCUUUACUCCCAGCACUUUGGGAGGUGGAUCUCUGAGUCAACAGAGGAUUGAGCAUCA
# B11: chr14:57521792:57521793:+_ENSMUSG00000021945_ENSMUST00000022511|mus_mus|FALSE|FALSE (ssRNA)
# RNA: GGGAGUUCUACAGUCCGACGAUCUGAAGGAAGAAUUUUGGGAUCGUUUCCUUGUAGUUCUUCAUUUUUUGAAGAUGUAAAUGUUAUGGGUCUUUGAUCAGCAACCAAAGGUGCAGAAGAUGGAGGAGGUUGUACAGGUUCAAUCAACAGAGGAUUGAGCAUCA
# B12: chr12:112466857:112466858:-_ENSG00000111300_ENST00000261745|hu_hu|FALSE|FALSE (ssRNA)
# RNA: GGGAGUUCUACAGUCCGACGAUCGUGUACCUGCCUUGGGUUCUGUGGGAGCCAAGUAGCUGAGAAAGCCUCAAAACAAACUUACUGCUGUGAAAAGGGGGUCUGUUCCCAGGCAUGGUCUCCCCUCCACUUCUUGUGGCUCAACAACAGAGGAUUGAGCAUCA
# B13: chr4:25749455:25749456:-_ENSG00000091490_ENST00000264868|hu_hu|hu_hu_hu_mus_False|28_88 (ssRNA)
# RNA: GGGAGUUCUACAGUCCGACGAUCGCACUAUGACCUCUAGAAAAAUCAUUCAAGGAGAAAAAUGUAAACCAAUGUACAAUGUUAUCGCCUUCCCUGUGUGUGGAGUGACAAACAAUUGGCUCCUUCUAGCUGCUGGAUUUGGGACAACAGAGGAUUGAGCAUCA
# B14: chr19:15981513:15981514:-_ENSMUSG00000024640_ENSMUST00000025542|mus_mus|FALSE|FALSE (ssRNA)
# RNA: GGGAGUUCUACAGUCCGACGAUCCAAAGCUUCGUCUCCUUUGGCGUUGCCAAUGCGAAAUGGGAUGUUCAUCCUGCUUCUAUUCUGGCGCUCCACUGGGCAUACAUAAAAUCCUUGAGAAUUAUCAAUGAUCUCAUAAAUCAUCAACAGAGGAUUGAGCAUCA
# Target: T1, UNK ZnF1-3
# Test: nsRBNS (natural sequence RNA bind-n-seq); RBNS binding buffer (assumed for nsRBNS): 25 mM Tris pH 7.5, 150 mM KCl, 3 mM MgCl2, 0.01% Triton X-100, 500 ug/ml BSA, 20 U/ml SUPERase-In, 4 C; UNK is unkempt and MSI1 is Musashi-1; names of the RNAs are library labels; protein concentration not given here; high values mean tight binding
row,Binder,binding signal
1,B1,1.52 enrichment R
2,B2,1.01 enrichment R
3,B3,0.663 enrichment R
4,B4,1.15 enrichment R
5,B5,1 enrichment R
6,B6,1.24 enrichment R
7,B7,0.839 enrichment R
8,B8,3.07 enrichment R
9,B9,1.35 enrichment R
10,B10,1.19 enrichment R
11,B11,1.19 enrichment R
12,B12,1.17 enrichment R
13,B13,1.19 enrichment R
14,B14,0.557 enrichment R
